In PubChem BioAssay AID1745853 (National Center for Advancing Translational Sciences (NCATS), 2022):
Values joined by “and” are separate entries in the source; they are usually repeats but may differ in a detail not shown here. Equal values may be shown once. The list shows a part of the results. These are further read-outs of the screen, such as a control signal, another cell line or another target. No call is given for them.

Key:
Assay in all cases: Primary Screen for Target Class Profiling of Small Molecule Inhibitors of Methyltransferases
[1] = target: Glycine N-methyltransferase (Homo sapiens) (UniProt Q14749); details: purified enzyme, MTase-Glo SAH luminescence; measured here: GNMT inhibition; at 40 µM; stronger effect = lower value
In short: (§1)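 Each enzyme was assayed with SAM and its substrate. SAH formation detected by MTase-Glo luminescence; single-point 40 uM screen[…].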

[2] = target: Guanidinoacetate N-methyltransferase (Homo sapiens) (UniProt Q14353); details: purified enzyme, MTase-Glo SAH luminescence; measured here: GAMT inhibition; at 40 µM; stronger effect = lower value
In short: as §1

[3] = target: Histamine N-methyltransferase (Homo sapiens) (UniProt P50135); details: purified enzyme, MTase-Glo SAH luminescence; measured here: HNMT inhibition; at 40 µM; stronger effect = lower value
In short: as §1

[4] = target: Nicotinamide N-methyltransferase (Homo sapiens) (UniProt P40261); details: purified enzyme, MTase-Glo SAH luminescence; measured here: NNMT inhibition; at 40 µM; stronger effect = lower value
In short: as §1

[5] = target: Phenylethanolamine N-methyltransferase (Homo sapiens) (UniProt P11086); details: purified enzyme, MTase-Glo SAH luminescence; measured here: PNMT inhibition; at 40 µM; stronger effect = lower value
In short: as §1
On the % scale 0 is the no-effect control and ±100 the full control effect.

Structure (SMILES) | activity change, negative = inhibition [1] | activity change, negative = inhibition [2] | activity change, negative = inhibition [3] | activity change, negative = inhibition [4] | activity change, negative = inhibition [5]
CCN(CC)C(=O)[C@@H](C)C1CC[C@@]2(C)CC[C@H](NC(=O)c3ccncc3)[C@@H](C)[C@@H]2[C@H]1O (stereo partly drawn) | -2.64% | -4.69% | -2.22% | -3.35% | -3.48%
CC(=O)Nc1c2n(c3ccc(F)cc13)CC(C)(C(=O)NCCC(C)C)N(Cc1ccco1)C2=O (stereo not drawn) | 1.71% | 0% | 3.61% | 9.59% | -7.75%
COc1ccc(C(=O)N2CCC[C@H]2c2nc(-c3ccccc3)no2)cc1 | -3.89% | -3.48% | -1.06% | -17.9% | -3.84%
Cc1cc2nn(CC(=O)Nc3cccc(Cl)c3)c(=O)n2c(Nc2ccccc2C)n1 | 13.5% | 0% | 1.74% | 3.79% | 4.38%
O=C(NCC1CCOCC1)c1ccoc1 | -5.16% | -0.648% | -2.98% | -7.45% | -6.86%
Cn1nccc1C(=O)N1CCCCCNC(=O)[C@@H]2CCC[C@@H]21 | 0.731% | 0.553% | 1.62% | -5.75% | 13.8%
Nc1nonc1-c1nc2cnccc2n1C1CC1 |  | 0.358% |  | -42.1% | -10.5%
CC(C)C(=O)N(Cc1ccco1)S(=O)(=O)c1ccc2c(c1)n(C)c(=O)n2C | 1% | 0% | 6.01% | 3.2% | 1.35%
Cc1ccc(Cn2c(=O)c3ccc(C(=O)NC(C)C)cc3n3c(=O)n(Cc4ccc(Cl)cc4)nc23)cc1 | 7.98% | 2.43% | 10.6% | 9.31% | 7.37%
Oc1ccc2ccccc2c1SSc1c(O)ccc2ccccc12 | -54.3% | -2.18% | -5.91% | -9.21% | -1.82%
Clc1ccc(Cn2c(CN3CCCC3)nc3ccccc32)cc1 | -9.07% and -3.68% | -14.5% and 8.47% | 1.51% and -4.75% | -28.8% and -20.9% | -3.81% and 4.37%
O=C(CCc1nnc2n(Cc3ccccc3Cl)c(=O)c3ccccc3n12)N1CCN(c2ccccn2)CC1 | -13.7% | 5.1% | 5.14% | 8.69% | -8.43%
COc1cc2nc(N(C)CCCNC(=O)C3CCCO3)nc(N)c2cc1OC (stereo not drawn) | -9.79% | -0.266% | -4.02% | -9.63% | 1.23%
COc1ccc(-c2ccccc2C(=O)NCC#N)nn1 | -6.34% | -11.9% | -3.26% | -8.69% | -13.7%
O=C(Nc1cc(C(F)(F)F)cc(C(F)(F)F)c1)c1cnc(Cl)nc1C(F)(F)F | -11.1% | -27.6% | -0.198% | -41.1% | -3.52%
COc1ccc2cc3n(c2c1)CC(C)(C(=O)NC1CCCC1)N(Cc1cccnc1)C3=O (stereo not drawn) | -1.39% | 0.619% | 3% | -2.4% | -3.83%
O=C(Nc1ccc(F)cc1F)N1Cc2c(sc3c2CCCC3)-n2cccc2C1c1ccc(F)cc1 (stereo not drawn) | 1.95% | 0% | 4.11% | 1.86% | 3.69%
Cn1cccc1CN1CCC2(CC1)CNc1ccccc1[S+](=O)([O-])N2 | -7.6% | -8.18% | -24.9% | -6.76% | -6.95%
Cc1cccc(NC(=O)c2cc3n(n2)CC(C)(C(=O)NCc2ccc(F)cc2)N(C)C3=O)c1C (stereo not drawn) | 4.33% | 0% | 3.14% | 0.914% | 4.14%
Cc1ccccc1CCNC(=O)c1cc2n(n1)CC(C)(C(=O)NCc1ccccc1)N(C)C2=O (stereo not drawn) | 10.2% | 0.36% | 10.3% | 12.7% | 3.42%
